Data on 130 sequences can be found in a collection of fitness landscapes (doi:10.1038/s41467-024-54723-y).

In all, about 18,000 sequences were measured (“TetR repression strength (sort-seq, GFP reporter)”: median about 0.23, highest 2% from about 0.68 on). The list shows a part of the results.

Sequence of UniProt P04483 (P04483 whole entry): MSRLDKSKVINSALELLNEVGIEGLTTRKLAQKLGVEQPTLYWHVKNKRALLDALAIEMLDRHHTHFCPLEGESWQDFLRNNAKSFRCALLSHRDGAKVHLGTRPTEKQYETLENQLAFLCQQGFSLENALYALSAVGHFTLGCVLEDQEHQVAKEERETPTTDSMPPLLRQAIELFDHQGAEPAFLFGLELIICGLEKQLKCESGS

The target in this assay is TetR (class B, Tn10) (UniProt P04483). The assay can be described thus: TetR repression strength (sort-seq, GFP reporter) (relative to tetO2 = 1); higher = stronger repression. The settings on record: E. coli. An outline of the steps:
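E. coli SIG10-MAX carried a low-copy plasmid library with eight randomized operator positions between a constitutive promoter and sfGFP, with TetR constitutively expressed. Cells grew 5 h at 37 °C in LB with 50 µg/mL chloramphenicol, then 10^6 cells were FACS-sorted into 13 fluorescence bins, each Illumina-sequenced. Repression strength is the top bin index plus one minus the read-weighted mean bin, divided by the wild-type operator value. Three independent transformations; variants with ≥30 reads in all replicates and CV ≤0.5 were averaged.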
TCCCTGCTAGTTCGTGAGA: the TetR repression strength was found to be 0.396.

TCCCCCTAAGTAGCTGAGA came in with a TetR repression strength of 0.333.

The sequence TCCCGACGAGTACGAGAGA yielded a TetR repression strength of 0.0802.

Take TCCCGTGTAGTCATGGAGA: the TetR repression strength was 0.316.

For the sequence TCCCCGTGAGTGTGTGAGA, the TetR repression strength came to 0.184.

In the case of TCCCTGAAAGTGGTAGAGA, the TetR repression strength came out at 0.142.

Sequence TCCCAAGAAGTTGGCGAGA showed a TetR repression strength of 0.335.

TCCCGAGGAGTGGGCGAGA displayed a TetR repression strength of 0.165.

As to TCCCACTTAGTTTGGGAGA, the TetR repression strength is 0.212.

On to TCCCGGACAGTTGTAGAGA, for which the TetR repression strength was determined as 0.216.

In the case of TCCCTTCAAGTTAGTGAGA, the TetR repression strength was 0.315.

TCCCGGCTAGTTGGGGAGA returned a TetR repression strength of 0.168.

In the case of TCCCGGGAAGTAGTGGAGA, the TetR repression strength came to 0.361.

Turning to TCCCCTAAAGTCCTCGAGA, the TetR repression strength was determined as 0.409.

Consider TCCCATCTAGTGTGTGAGA, for which the TetR repression strength was determined as 0.253.

The sequence TCCCTGATAGTAGTAGAGA came in with a TetR repression strength of 0.0256.

The sequence TCCCTCGGAGTAAGTGAGA displayed a TetR repression strength of 0.228.

Turning to TCCCACCAAGTCGAAGAGA, the TetR repression strength amounted to 0.227.

In turn, TCCCGTGTAGTTATGGAGA displayed a TetR repression strength of 0.138.

As for TCCCAGCAAGTTAAGGAGA, the TetR repression strength turned out to be 0.173.

Turning to TCCCAGACAGTATATGAGA, the TetR repression strength is 0.205.

Consider TCCCTCGAAGTCAATGAGA, for which the TetR repression strength stood at 0.24.

TCCCAGCGAGTCTGAGAGA: the TetR repression strength is 0.281.

In the case of TCCCACTTAGTATTTGAGA, the TetR repression strength came to 0.207.

As for TCCCTTAAAGTATTAGAGA, the TetR repression strength was determined as 0.252.

With TCCCGCAGAGTCACTGAGA, the TetR repression strength was 0.173.

Turning to TCCCGTCCAGTGTCGGAGA, the TetR repression strength is 0.0239.

TCCCCGGTAGTGGCCGAGA gave a TetR repression strength of 0.201.

As for TCCCTGGTAGTGGCAGAGA, the TetR repression strength amounted to 0.136.

TCCCGACTAGTGGCGGAGA gave a TetR repression strength of 0.0984.

TCCCGATAAGTGCCCGAGA displayed a TetR repression strength of 0.321.

Take TCCCGAAGAGTGATCGAGA: the TetR repression strength was found to be 0.262.

Turning to TCCCGTATAGTGTTCGAGA, the TetR repression strength came out at 0.0287.

For the sequence TCCCGTCGAGTTGGCGAGA, the TetR repression strength was 0.3.

In turn, TCCCAATGAGTGGGTGAGA yielded a TetR repression strength of 0.326.

As for TCCCAACGAGTAGTAGAGA, the TetR repression strength was 0.306.

Turning to TCCCAGTGAGTAGTGGAGA, the TetR repression strength is 0.173.

On to TCCCGATCAGTGCATGAGA, for which the TetR repression strength worked out at 0.353.

On to TCCCAGCGAGTTCTGGAGA, for which the TetR repression strength was 0.222.

With TCCCGCACAGTTTGTGAGA, the TetR repression strength was found to be 0.21.

In turn, TCCCGTGAAGTGCTGGAGA showed a TetR repression strength of 0.113.

With TCCCACGGAGTTGGAGAGA, the TetR repression strength was found to be 0.023.

As to TCCCTTGAAGTACGGGAGA, the TetR repression strength is 0.148.

TCCCGGAGAGTGGAAGAGA: the TetR repression strength was 0.278.

In the case of TCCCGGATAGTCGATGAGA, the TetR repression strength is 0.199.

TCCCACAGAGTAGATGAGA registered a TetR repression strength of 0.171.

Turning to TCCCACCAAGTCAATGAGA, the TetR repression strength worked out at 0.943.

For TCCCTGAAAGTGTTTGAGA, the TetR repression strength turned out to be 0.227.

Take TCCCGGTGAGTGCTAGAGA: the TetR repression strength worked out at 0.495.

TCCCGGGGAGTGATCGAGA had a TetR repression strength of 0.28.

In the case of TCCCGGAGAGTATACGAGA, the TetR repression strength stood at 0.192.

Turning to TCCCAGCGAGTTATGGAGA, the TetR repression strength came out at 0.0727.

In turn, TCCCTAGGAGTTGGAGAGA yielded a TetR repression strength of 0.432.

TCCCTTTGAGTACATGAGA displayed a TetR repression strength of 0.121.

The sequence TCCCAATGAGTCCAGGAGA came in with a TetR repression strength of 0.25.

TCCCTTTTAGTAGTGGAGA showed a TetR repression strength of 0.167.

As to TCCCCGACAGTAAATGAGA, the TetR repression strength was 0.178.

Take TCCCGCACAGTCGGCGAGA: the TetR repression strength is 0.164.

On to TCCCAACGAGTGTGAGAGA, for which the TetR repression strength stood at 0.318.

Take TCCCCGCAAGTTAGAGAGA: the TetR repression strength stood at 0.198.

Sequence TCCCACTAAGTTAAGGAGA returned a TetR repression strength of 0.203.

As for TCCCTTCCAGTCCTAGAGA, the TetR repression strength stood at 0.24.

In turn, TCCCAAATAGTCGCGGAGA yielded a TetR repression strength of 0.285.

TCCCGGGTAGTTCGTGAGA returned a TetR repression strength of 0.0847.

For the sequence TCCCGCGCAGTTCACGAGA, the TetR repression strength worked out at 0.218.

Sequence TCCCGCCTAGTCCTAGAGA returned a TetR repression strength of 0.647.

The sequence TCCCTGTAAGTTAGGGAGA gave a TetR repression strength of 0.191.

For TCCCGCATAGTTAAGGAGA, the TetR repression strength worked out at 0.402.

In the case of TCCCGATTAGTATTGGAGA, the TetR repression strength was determined as 0.304.

TCCCATATAGTAACGGAGA had a TetR repression strength of 0.276.

TCCCCTTAAGTACGCGAGA: the TetR repression strength was determined as 0.297.

Consider TCCCGACCAGTGACAGAGA, for which the TetR repression strength amounted to 0.644.

Consider TCCCGATCAGTGATGGAGA, for which the TetR repression strength worked out at 0.482.

TCCCGAAGAGTGTGTGAGA had a TetR repression strength of 0.35.

TCCCGAGGAGTGCCAGAGA gave a TetR repression strength of 0.547.

Take TCCCGAATAGTGATGGAGA: the TetR repression strength was 0.295.

Consider TCCCCTCTAGTGGCCGAGA, for which the TetR repression strength was determined as 0.17.

On to TCCCAGAAAGTTCTAGAGA, for which the TetR repression strength was determined as 0.329.

TCCCAGCTAGTGCTAGAGA displayed a TetR repression strength of 0.33.

TCCCGTGTAGTTCTCGAGA: the TetR repression strength is 0.0552.

TCCCTATTAGTCTTAGAGA had a TetR repression strength of 0.389.

Consider TCCCTTGTAGTGATCGAGA, for which the TetR repression strength was determined as 0.4.

Take TCCCGAAGAGTCTTAGAGA: the TetR repression strength stood at 0.279.

Consider TCCCACACAGTTCAGGAGA, for which the TetR repression strength was found to be 0.205.

Take TCCCAAAGAGTTGTGGAGA: the TetR repression strength is 0.266.

As to TCCCGATTAGTTCTCGAGA, the TetR repression strength was 0.223.

TCCCGGTTAGTTAGGGAGA showed a TetR repression strength of 0.229.

Sequence TCCCTCGGAGTAGCAGAGA showed a TetR repression strength of 0.0942.

Turning to TCCCAGAGAGTTTGTGAGA, the TetR repression strength was found to be 0.43.

As to TCCCTCGGAGTCAGAGAGA, the TetR repression strength came to 0.181.

Take TCCCTTCAAGTCAATGAGA: the TetR repression strength came out at 0.311.

With TCCCTGGGAGTGGGTGAGA, the TetR repression strength came out at 0.211.

TCCCTGTGAGTATCCGAGA came in with a TetR repression strength of 0.213.

In the case of TCCCTATAAGTTCCGGAGA, the TetR repression strength came out at 0.037.

In turn, TCCCGGAGAGTGCCCGAGA returned a TetR repression strength of 0.102.

For TCCCGGACAGTGAGCGAGA, the TetR repression strength was determined as 0.459.

TCCCATCGAGTCAGTGAGA registered a TetR repression strength of 0.37.

TCCCGATAAGTTCTGGAGA: the TetR repression strength was determined as 0.217.

The sequence TCCCGCTTAGTGGGCGAGA gave a TetR repression strength of 0.184.

Take TCCCGGCAAGTTCAAGAGA: the TetR repression strength came out at 0.409.

With TCCCGGGAAGTTGATGAGA, the TetR repression strength worked out at 0.0797.

TCCCTTACAGTCTTGGAGA came in with a TetR repression strength of 0.19.

As for TCCCTCAGAGTGTATGAGA, the TetR repression strength stood at 0.21.

For TCCCCGGGAGTTGCTGAGA, the TetR repression strength amounted to 0.0444.

TCCCGAGAAGTGGCTGAGA yielded a TetR repression strength of 0.43.

In turn, TCCCAGGAAGTGCTCGAGA came in with a TetR repression strength of 0.104.

In the case of TCCCGGGCAGTGGTAGAGA, the TetR repression strength was 0.22.

As to TCCCAGGCAGTGTCTGAGA, the TetR repression strength was 0.288.

Consider TCCCTTTAAGTTGGAGAGA, for which the TetR repression strength was determined as 0.216.

Sequence TCCCTACAAGTCTCAGAGA showed a TetR repression strength of 0.139.

In the case of TCCCGCGTAGTAAGTGAGA, the TetR repression strength was 0.299.

Consider TCCCCCGGAGTTTAGGAGA, for which the TetR repression strength turned out to be 0.408.

Regarding TCCCAGTTAGTGGGTGAGA, the TetR repression strength is 0.172.

In turn, TCCCGAGAAGTGGGTGAGA came in with a TetR repression strength of 0.313.

For TCCCGGTCAGTATAGGAGA, the TetR repression strength stood at 0.219.

TCCCGGGTAGTGGCGGAGA gave a TetR repression strength of 0.268.

The sequence TCCCCGCAAGTTTCAGAGA showed a TetR repression strength of 0.183.

On to TCCCATCGAGTGCGCGAGA, for which the TetR repression strength worked out at 0.244.

The sequence TCCCCTACAGTACCTGAGA showed a TetR repression strength of 0.246.

Regarding TCCCTACCAGTCGCGGAGA, the TetR repression strength was determined as 0.967.

On to TCCCGAAGAGTGCTGGAGA, for which the TetR repression strength stood at 0.548.

With TCCCGTTCAGTGTCTGAGA, the TetR repression strength is 0.289.

Sequence TCCCTACCAGTAGCGGAGA showed a TetR repression strength of 0.353.

Sequence TCCCGAGGAGTAAAAGAGA gave a TetR repression strength of 0.487.

Take TCCCTCAAAGTTGACGAGA: the TetR repression strength is 0.503.

On to TCCCTGGCAGTCCATGAGA, for which the TetR repression strength was 0.519.

Sequence TCCCACTCAGTTCGAGAGA displayed a TetR repression strength of 0.0835.

Sequence TCCCGGCCAGTCACCGAGA showed a TetR repression strength of 0.19.

Regarding TCCCGGCGAGTGGCAGAGA, the TetR repression strength came to 0.45.

Turning to TCCCGATGAGTGCTGGAGA, the TetR repression strength was found to be 0.27.
